Results: article PMC10466050, “A comparative study of human and zebrafish glucocorticoid receptor activities of natural and pharmaceutical steroids” (Frontiers in Endocrinology, 2023)

How the values were obtained:
[1] = target: zfGR (Danio rerio, UniProt Q1XHK0); test: In vitro transactivation assay (agonism), UMLN-zfGR reporter cells
[2] = target: T1, hGR (Homo sapiens, UniProt P04150); test: In vitro transactivation assay (agonism), HMLN-hGR reporter cells; details: HMLN-hGR; % of maximal luciferase activity induced by 100 nM dexamethasone; at 10^-5M (10^-6M for bimedrazole, cortivazol, dexamethasone)
T1 sequence (P04150 1-777): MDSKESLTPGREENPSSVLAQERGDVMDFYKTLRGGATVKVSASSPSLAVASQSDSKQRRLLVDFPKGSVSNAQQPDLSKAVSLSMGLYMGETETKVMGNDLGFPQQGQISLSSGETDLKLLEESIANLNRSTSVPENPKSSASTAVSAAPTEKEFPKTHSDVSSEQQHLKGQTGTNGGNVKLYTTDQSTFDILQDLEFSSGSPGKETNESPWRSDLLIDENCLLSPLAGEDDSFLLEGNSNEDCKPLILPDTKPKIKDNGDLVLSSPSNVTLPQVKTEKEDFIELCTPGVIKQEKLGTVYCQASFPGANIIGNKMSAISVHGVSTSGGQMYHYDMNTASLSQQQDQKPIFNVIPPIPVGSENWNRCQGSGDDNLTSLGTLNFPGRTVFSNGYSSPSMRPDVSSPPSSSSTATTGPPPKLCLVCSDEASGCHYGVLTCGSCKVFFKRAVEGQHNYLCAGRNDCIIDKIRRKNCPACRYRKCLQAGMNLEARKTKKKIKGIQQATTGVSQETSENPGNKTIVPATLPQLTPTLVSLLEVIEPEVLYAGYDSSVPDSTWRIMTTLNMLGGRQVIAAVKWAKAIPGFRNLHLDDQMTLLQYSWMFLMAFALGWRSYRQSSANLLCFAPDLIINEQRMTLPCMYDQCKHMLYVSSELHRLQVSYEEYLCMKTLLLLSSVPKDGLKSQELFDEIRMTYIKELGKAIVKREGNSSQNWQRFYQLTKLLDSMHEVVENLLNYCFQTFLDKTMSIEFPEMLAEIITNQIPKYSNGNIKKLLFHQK

[3] = target: T1, hGR; details: HMLN-hGR; with 3 nM dexamethasone; % of maximal luciferase activity induced by 100 nM dexamethasone; at 10^-5M
[4] = target: T1, hGR; test: cell-based

SMILES | EC50 [1] [nM] | REP (relative potency) ([1]; UMLN-zfGR, ratio of EC50 values, DEX set at 1) | % max act (maximal activity) [2] [%] | % min act (minimal activity) [3] [%] | IC50 [4] [nM]
CC(=O)OCC(=O)[C@@]1(O)[C@H](C)C[C@H]2[C@@H]3C=C(C)C4=Cc5c(cnn5-c5ccccc5)C[C@]4(C)[C@H]3[C@@H](O)C[C@@]21C [cortivazol] | 0.38 | 5.2 |  |  | 
C[C@@H]1C[C@H]2[C@@H]3CCC4=CC(=O)C=C[C@]4(C)[C@@]3(F)[C@@H](O)C[C@]2(C)[C@@]1(O)C(=O)CO [dexamethasone] |  |  | 100 ± 0 |  | 
CCC(=O)O[C@]1(C(=O)SCF)[C@H](C)C[C@H]2[C@@H]3C[C@H](F)C4=CC(=O)C=C[C@]4(C)[C@@]3(F)[C@@H](O)C[C@@]21C [fluticasone proprionate, fluticasone propionate] | 0.23 |  | 119 ± 9 |  | 
C[C@H]1C[C@@H]2[C@H]([C@@H](O)C[C@@]3(C)[C@H]2CC[C@]3(O)C(=O)CO)[C@@]2(C)C=CC(=O)C=C12 [medrol] | 12 |  | 119 ± 5 |  | 
CCC(=O)[C@@]1(C)CC[C@H]2[C@@H]3CCC4=CC(=O)CCC4=C3CC[C@@]21C [promegestone] |  |  |  | 3 ± 1 | 772
